Measured values from PubChem BioAssay AID1768 (National Center for Advancing Translational Sciences (NCATS), 2009).
In all, about 270,000 compounds went through this assay and about 620 (0.23%) were called active. Inconclusive means that the source gave no clear call. Such entries were picked first, then a sample of the others. The call rests on the fitted dose curve; in most records, active means well fitted inhibition curve with a large enough effect in the polarisation, with a control signal flat (not every such curve was filed as active); inconclusive means small, poorly fitted or top-dose-only effect, or effect the other way, or a change in a side signal; inactive means no such curve, though single readings can be large or run the other way; the % refers to the polarisation. A potency beside an inconclusive call is a rough fit, not a confirmed value. “Side channel” marks fits to a control or component signal instead of the main read-out.
Potency means the concentration at half of the fitted maximal effect; tags describe the fitted curve by direction and shape or compound fluorescence and quenching.

The compounds below were run against Menin (Homo sapiens) (UniProt O00255) (assay: qHTS Assay for Inhibitors Targeting the Menin-MLL Interaction in MLL Related Leukemias: Competition With Texas Red Labeled MLL-derived Mutant Peptide). Details: fluorescence polarization; series mostly up to 61.6 µM.
UniProt O00255, sequence (O00255 whole entry, looked up): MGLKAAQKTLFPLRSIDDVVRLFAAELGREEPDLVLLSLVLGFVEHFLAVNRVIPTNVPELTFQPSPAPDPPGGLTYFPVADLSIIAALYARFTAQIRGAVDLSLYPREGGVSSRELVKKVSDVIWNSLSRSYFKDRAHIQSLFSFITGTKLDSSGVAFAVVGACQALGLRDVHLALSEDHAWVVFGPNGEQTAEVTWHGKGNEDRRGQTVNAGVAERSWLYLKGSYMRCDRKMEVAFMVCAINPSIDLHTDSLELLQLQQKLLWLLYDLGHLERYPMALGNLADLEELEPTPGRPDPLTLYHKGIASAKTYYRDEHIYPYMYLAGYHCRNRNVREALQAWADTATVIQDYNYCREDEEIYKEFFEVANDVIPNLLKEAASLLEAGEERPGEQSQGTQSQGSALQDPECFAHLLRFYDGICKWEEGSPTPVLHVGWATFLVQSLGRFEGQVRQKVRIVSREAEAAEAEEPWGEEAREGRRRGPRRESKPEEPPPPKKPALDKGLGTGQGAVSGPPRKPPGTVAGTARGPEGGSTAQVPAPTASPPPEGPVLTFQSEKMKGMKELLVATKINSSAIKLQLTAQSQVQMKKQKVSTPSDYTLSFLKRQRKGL
For `COc1cccc(CNC(=O)CSCc2cnn(-c3ccccc3)c2-n2cccc2)c1OC`, the Potency was “inactive”.
For `COCCn1c(=NC(=O)c2ccc(S(=O)(=O)N3CCc4ccccc4C3)cc2)sc2cc(S(N)(=O)=O)ccc21`, the Potency was inconclusive: 15.8 µM [inhibitor, single point].
In the case of `Cc1cccc(NCc2cc(Cl)cc(Cl)c2O)n1`, the Potency is reported as inconclusive: 14.1 µM [quencher, side channel, partial curve].
In the case of `COc1ccccc1NCCC(=O)OCC(=O)NC1CCCCC1`, the Potency is reported as “inactive”.
In the case of `CCOc1ccc(C(O)(c2ccccc2)C(CN2CCCC2)c2ccccc2)cc1` (stereo unspecified), the Potency is reported as inconclusive: 39.8 µM [fluorescent, side channel, single point].
In the case of `COc1ccccc1N1CCN(C(=O)C2CCN(C(=O)c3cccc(Cl)c3)CC2)CC1`, the Potency is reported as inconclusive: 0.708 µM [inhibitor, full curve, poor fit].
In the case of `CC(=O)Nc1ccc(NC(=O)c2cccc3c2-c2ccccc2C3=O)cc1`, the Potency is reported as inconclusive: 35.5 µM [quencher, side channel, single point].
For `O=C(c1ccccc1Cl)N1N=C(c2ccc(Br)cc2)CC1c1nc2ccccc2[nH]1` (stereo unspecified), the Potency was inconclusive: 35.5 µM [inhibitor, single point].
`Cc1c(Cc2ccccc2)c(=O)oc2cc(OCC(=O)NCC(O)c3ccccc3)ccc12` (stereo unspecified) was tested, and the Potency was inconclusive: 25.1 µM [fluorescent, side channel, partial curve].
`O=C(CSc1nnc(Cc2csc(Nc3cccc(Cl)c3)n2)o1)N1CCc2ccccc21` was tested, and the Potency was inconclusive: 7.94 µM [quencher, side channel, full curve].
In the case of `Cc1ccc(C(=O)NC(=S)Nc2ccc(N3CCOCC3)cc2)cc1C`, the Potency is reported as inconclusive: 39.8 µM [quencher, side channel, single point].
`COc1ccc(-c2nn(-c3ccccc3)cc2C(=O)NC(=S)NNC(=O)c2ccncc2)cc1` was tested, and the Potency was inconclusive: 28.2 µM [quencher, side channel, partial curve].
In the case of `O=C(NCc1ccco1)c1cnn2c(C(F)F)cc(-c3ccccc3)nc12`, the Potency is reported as inconclusive: 3.98 µM [inhibitor, partial curve].
`COc1ccc(NC(=O)Cc2nc3ccccc3[nH]2)cc1` was tested, and the Potency was inconclusive: 0.631 µM [quencher, side channel, full curve, poor fit].
`Cn1c(=O)c2c(n(Cc3ccccc3)c1=O)NC(=O)C2CC(=O)NCc1cccc(Cl)c1` (stereo unspecified) was tested, and the Potency was inconclusive: 28.2 µM [quencher, side channel, single point].
With `CC(C)n1c(SCC(=O)Nc2ccccc2N2CCCCC2)nc2c1c(=O)n(C)c(=O)n2C` the Potency was inconclusive: 3.16 µM [fluorescent, side channel, full curve, poor fit].
In the case of `CCOC(=O)c1ccc(CC2S/C(=C(\C#N)C(C)=O)NC2=O)cc1` (stereo unspecified), the Potency is reported as inconclusive: 39.8 µM [quencher, side channel, single point].
With `C=CCN1/C(=C2/SC(=S)N(C)C2=O)Sc2ccccc21` the Potency was inconclusive: 39.8 µM [quencher, side channel, single point].
For `O=C(/C=C/c1cccc([N+](=O)[O-])c1)NC(=S)Nc1cccc(NC(=O)c2ccccc2Cl)c1`, the Potency was inconclusive: 8.91 µM [quencher, side channel, full curve, poor fit].
In the case of `COc1ccc2[nH]c3ccc(OC)cc3c2c1`, the Potency is reported as inconclusive: 28.2 µM [quencher, side channel, partial curve].
For `CCCCC(=O)NC(=S)Nc1ccc(NC(=O)C(C)C)c(OC)c1`, the Potency was inconclusive: 7.94 µM [inhibitor, full curve].
`Cc1cccc(CN2CCCC(C(=O)Nc3ccccc3Oc3cccnc3)C2)c1` (stereo unspecified) was tested, and the Potency was “inactive”.
With `CCN(CC)/[N+]([O-])=N/Oc1cc(O/[N+]([O-])=N/N2CCCC2CO)c([N+](=O)[O-])cc1[N+](=O)[O-]` (stereo unspecified) the Potency was “inactive”.
`Cc1ccc(C(=O)O)cc1-c1ccc(C=C2C(=O)c3ccccc3C2=O)o1` was tested, and the Potency was inconclusive: 22.4 µM [quencher, side channel, partial curve].
`Cc1ccccc1-c1cncnc1NCCN1CCOCC1` was tested, and the Potency was inconclusive: 35.5 µM [inhibitor, single point].
In the case of `COc1ccc(/C=N/NC(=O)c2ccncc2)c(C(=O)O)c1OC`, the Potency is reported as inconclusive: 39.8 µM [inhibitor, single point].
With `O=C(Nc1nnc(-c2ccco2)s1)c1ccccc1` the Potency was inconclusive: 12.6 µM [quencher, side channel, partial curve].
`CCOc1ccc(N2C(=O)CC(SC(=NC)Nc3ccc4c(c3)OCO4)C2=O)cc1` (stereo unspecified) was tested, and the Potency was inconclusive: 12.6 µM [quencher, side channel, partial curve].
For `O=C(NCCc1c[nH]c2ccccc12)c1cc2ccccc2oc1=O`, the Potency was inconclusive: 10 µM [quencher, side channel, partial curve].
For `COc1cc(/C=N/O)cc(Br)c1OS(=O)(=O)c1ccc(C)cc1`, the Potency was inconclusive: 12.6 µM [quencher, side channel, partial curve].
`Cc1ccc2cc(CN(Cc3cccs3)Cc3nnnn3CC3CCCO3)c(=O)[nH]c2c1C` (stereo unspecified) was tested, and the Potency was inconclusive: 3.98 µM [inhibitor, single point].
With `CCOC(=O)c1sc(=S)n(-c2ccccc2)c1N(C(C)=O)C(C)=O` the Potency was inconclusive: 28.2 µM [quencher, side channel, single point].
`COc1ccc2nc(-c3ccc(N)cc3)[nH]c2c1` was tested, and the Potency was inconclusive: 15.8 µM [quencher, side channel, partial curve].
For `COc1ccc(-c2ccc3c(N)c(C(=O)c4cccc(OC)c4)sc3n2)cc1`, the Potency was inconclusive: 7.94 µM [quencher, side channel, partial curve].
For `O=C(/C=C/c1ccccc1Cl)c1ccccc(=O)c1O`, the Potency was inconclusive: 20 µM [quencher, side channel, partial curve].
For `Oc1ccc(Br)cc1/C=N/n1c(COc2ccccc2)n[nH]c1=S`, the Potency was inconclusive: 31.6 µM [quencher, side channel, single point].
For `Oc1ccc(C=Nc2ccccc2-c2nc3ccccc3[nH]2)cc1`, the Potency was inconclusive: 22.4 µM [quencher, side channel, single point].
In the case of `CC(=O)Oc1c(-c2ccc(Br)o2)oc2ccccc2c1=O`, the Potency is reported as inconclusive: 15.8 µM [quencher, side channel, partial curve].
In the case of `O=C(NCc1ccco1)C(c1ccccc1)N(CC1CCCO1)C(=O)Cn1nnc2ccccc21` (stereo unspecified), the Potency is reported as “inactive”.
With `CC(C)NC(=O)CN1C(=O)C(=O)c2ccccc21` the Potency was inconclusive: 44.7 µM [inhibitor, partial curve, poor fit].
With `Nc1ccccc1SCCS(=O)(=O)c1ccc(Cl)cc1` the Potency was inconclusive: 39.8 µM [inhibitor, partial curve, poor fit].
With `O=C(NCc1ccccc1)C1C2C=CC3(CN(Cc4cccnc4)C(=O)C13)O2` (stereo unspecified) the Potency was inconclusive: 3.55 µM [inhibitor, partial curve].
`Cc1cccc(NC(=S)N=Nc2c(O)n(CN3CCOCC3)c3ccccc23)c1C` was tested, and the Potency was inconclusive: 10 µM [quencher, side channel, single point].
For `CCCCN(CC)CCNC(=O)c1cn(-c2ccc(Cl)cc2)c(=O)c2ccccc12`, the Potency was inconclusive: 31.6 µM [inhibitor, partial curve].
`CN(C)c1ccc(C2Nc3cccc4cccc(c34)N2)cc1` was tested, and the Potency was inconclusive: 11.2 µM [quencher, side channel, partial curve].
For `O=C(c1ccccc1F)N1CCN(c2cccc(C(F)(F)F)c2)CC1`, the Potency was inconclusive: 22.4 µM [fluorescent, side channel, single point].
`Nc1ccc(-c2cc(-c3cccc(N)c3)nc(-c3ccccc3)n2)cc1` was tested, and the Potency was inconclusive: 3.16 µM [quencher, side channel, full curve].
`O=C(C[n+]1cc(-c2ccccc2)n2c1CCCCC2)c1ccc(Cl)cc1` was tested, and the Potency was inconclusive: 11.2 µM [inhibitor, partial curve].
For `O=C(c1ccccc1)c1ccc2cc(O)ccc2c1`, the Potency was inconclusive: 25.1 µM [quencher, side channel, single point].
In the case of `Nn1cnnc1N/N=C/c1ccc(Cl)cc1Cl`, the Potency is reported as inconclusive: 20 µM [inhibitor, single point].
In the case of `NS(=O)(=O)c1ccc(NC(=O)/C=C/c2ccccc2[N+](=O)[O-])cc1`, the Potency is reported as inconclusive: 12.6 µM [quencher, side channel, partial curve].
With `CCC(C)c1ccc(S(=O)(=O)N2CCN(S(=O)(=O)c3ccc(NC(C)=O)cc3)CC2)cc1` (stereo unspecified) the Potency was inconclusive: 25.1 µM [fluorescent, side channel, partial curve].
With `Cc1cc([N+](=O)[O-])nn1CCCC(=O)NC(C)c1ccccc1` (stereo unspecified) the Potency was inconclusive: 39.8 µM [inhibitor, single point].
With `Oc1ccc(N=Nc2ccccc2-c2nn[nH]n2)c(O)c1` the Potency was inconclusive: 25.1 µM [quencher, side channel, partial curve].
`Cc1cc(NC(=O)c2c(F)cccc2Cl)n(-c2nc3ccccc3[nH]2)n1` was tested, and the Potency was inconclusive: 12.6 µM [quencher, side channel, partial curve].
In the case of `COc1cccc(CN(C)Cc2cc(=O)oc3cc(O)c(Cl)cc23)c1`, the Potency is reported as inconclusive: 25.1 µM [quencher, side channel, single point].
